# Some of the results follow.
# Columns and labels:
# Test in all cases: glycan array binding signal (z-score within array); higher = stronger binding
# Details in all cases: glycan notation: IUPAC condensed, linker removed
# [1] = target: Fuc(a1-3)[Gal(b1-4)]GlcNAc(b1-3)Gal(b1-4)Glc
# In short: (§1)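 From the Consortium for Functional Glycomics database, 3228 arrays were curated, keeping only those whose protein sequence was available. Binding is given as a within-array Z-score averaged across arrays sharing a protein sequence and across linkers. Negative Z-scores can be read as non-binding.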
# [2] = target: Fuc(a1-3)[Gal(b1-4)]GlcNAc(b1-3)Gal(b1-4)[Fuc(a1-3)]Glc
# In short: as §1
# [3] = target: Fuc(a1-3)[Gal(b1-4)]GlcNAc(b1-3)[Fuc(a1-2)]Gal(b1-4)Glc
# In short: as §1
# [4] = target: Fuc(a1-3)[Gal(b1-4)]GlcNAc(b1-3)[Fuc(a1-3)[Gal(b1-4)]GlcNAc(b1-6)]Gal(b1-4)Glc
# In short: as §1
# [5] = target: Fuc(a1-3)[Gal3S(b1-4)]Glc
# In short: as §1
# [6] = target: Fuc(a1-3)[Gal3S(b1-4)]GlcNAc
# In short: as §1
# [7] = target: Fuc(a1-3)[Gal3S(b1-4)]GlcNAc(b1-3)Gal
# In short: as §1
# [8] = target: Fuc(a1-3)[Gal3S(b1-4)]GlcNAc(b1-3)Gal(b1-4)Glc
# In short: as §1
# [9] = target: Fuc(a1-3)[Gal3S(b1-4)]GlcNAc6S(b1-3)Gal(b1-4)Glc
# In short: as §1
# [10] = target: Fuc(a1-3)[Gal6S(b1-4)]GlcNAc(b1-3)Gal(b1-4)Glc
# In short: as §1
# Fuc(a1-6)GlcNAc = target: Fuc(a1-6)GlcNAc
# In short: as §1
# Gal(a1-4)Gal(b1-4)Glc = target: Gal(a1-4)Gal(b1-4)Glc
# In short: as §1
# Gal(a1-4)Gal(b1-4)GlcNAc = target: Gal(a1-4)Gal(b1-4)GlcNAc
# In short: as §1
# Gal(a1-6)Glc = target: Gal(a1-6)Glc
# In short: as §1
# Gal(b1-3)GalNAc = target: Gal(b1-3)GalNAc
# In short: as §1
# [11] = target: Gal(b1-3)GalNAc(b1-4)Gal(b1-4)Glc
# In short: as §1
# [12] = target: Gal(b1-3)GalNAc(b1-4)Gal3S(b1-4)Glc
# In short: as §1
# [13] = target: Gal(b1-3)GalNAc(b1-4)[Neu5Ac(a2-3)]Gal(b1-4)Glc
# In short: as §1
# [14] = target: Gal(b1-3)GalNAc(b1-4)[Neu5Gc(a2-3)]Gal(b1-4)Glc
# In short: as §1
# Gal(b1-3)GlcNAc = target: Gal(b1-3)GlcNAc
# In short: as §1
# [15] = target: Gal(b1-3)GlcNAc(b1-3)Gal(b1-4)Glc
# In short: as §1
# [16] = target: Gal(b1-3)GlcNAc(b1-3)Gal(b1-4)GlcNAc(b1-3)Gal(b1-4)Glc
# In short: as §1
# [17] = target: Gal(b1-3)GlcNAc(b1-3)Gal(b1-4)GlcNAc(b1-6)[Gal(b1-3)GlcNAc(b1-3)]Gal(b1-4)Glc
# In short: as §1
# [18] = target: Gal(b1-3)GlcNAc(b1-3)Gal(b1-4)[Fuc(a1-3)]GlcNAc(b1-3)Gal(b1-4)Glc
# In short: as §1
# [19] = target: Gal(b1-3)GlcNAc(b1-3)Gal(b1-4)[Fuc(a1-3)]GlcNAc(b1-6)[Gal(b1-3)GlcNAc(b1-3)]Gal(b1-4)Glc
# In short: as §1
# [20] = target: Gal(b1-3)GlcNAc(b1-3)[Fuc(a1-3)[Gal(b1-4)]GlcNAc(b1-6)]Gal(b1-4)Glc
# In short: as §1
# [21] = target: Gal(b1-3)GlcNAc(b1-3)[Fuc(a1-3)[Gal(b1-4)]GlcNAc(b1-6)]Gal(b1-4)]GlcNAc(b1-6)[Gal(b1-4)]GlcNAc(b1-3)]Gal(b1-4)Glc
# In short: as §1
# [22] = target: Gal(b1-3)GlcNAc(b1-3)[Gal(b1-4)GlcNAc(b1-6)]Gal(b1-4)Glc
# In short: as §1
# [23] = target: Gal(b1-3)GlcNAc(b1-3)[Gal(b1-4)GlcNAc(b1-6)]Gal(b1-4)GlcNAc(b1-6)[Gal(b1-3)GlcNAc(b1-3)]Gal(b1-4)Glc
# In short: as §1
# [24] = target: Gal(b1-3)[Fuc(a1-4)]GlcNAc
# In short: as §1
binder,measurement,setting,value
"HysACBM (Streptococcus pneumoniae), Q54873 (protein) KNLVENGDFGQTEDGSSPWTGSKAQGWSAWVDQKNSADASTRVIEAKDGAITISSHEKLRAALHRMVPIEAKKKYKLRFKIKTDNKIGIAKVRIIEESGKDKRLWNSATTSGTKDWQTIEADYSPTLDVDKIKLELFYETGTGTVSFKDIELVEVADQLS",glycan array binding signal (z-score),[1],-0.091
same,glycan array binding signal (z-score),[2],0.007
same,glycan array binding signal (z-score),[3],-0.091
same,glycan array binding signal (z-score),[4],-0.091
same,glycan array binding signal (z-score),[5],-0.091
same,glycan array binding signal (z-score),[6],-0.091
same,glycan array binding signal (z-score),[7],-0.091
same,glycan array binding signal (z-score),[8],-0.091
same,glycan array binding signal (z-score),[9],0.088
same,glycan array binding signal (z-score),[10],-0.085
same,glycan array binding signal (z-score),Fuc(a1-6)GlcNAc,-0.057
same,glycan array binding signal (z-score),Gal(a1-4)Gal(b1-4)Glc,-0.091
same,glycan array binding signal (z-score),Gal(a1-4)Gal(b1-4)GlcNAc,-0.091
same,glycan array binding signal (z-score),Gal(a1-6)Glc,0.12
same,glycan array binding signal (z-score),Gal(b1-3)GalNAc,-0.08
same,glycan array binding signal (z-score),[11],0.174
same,glycan array binding signal (z-score),[12],-0.091
same,glycan array binding signal (z-score),[13],-0.091
same,glycan array binding signal (z-score),[14],-0.091
same,glycan array binding signal (z-score),Gal(b1-3)GlcNAc,0.076
same,glycan array binding signal (z-score),[15],-0.091
same,glycan array binding signal (z-score),[16],-0.091
same,glycan array binding signal (z-score),[17],-0.091
same,glycan array binding signal (z-score),[18],-0.091
same,glycan array binding signal (z-score),[19],-0.091
same,glycan array binding signal (z-score),[20],0.213
same,glycan array binding signal (z-score),[21],-0.091
same,glycan array binding signal (z-score),[22],-0.091
same,glycan array binding signal (z-score),[23],-0.017
same,glycan array binding signal (z-score),[24],-0.091
